According to the supplement of paper PMC4166925:
± gives the standard deviation of the averaged measurements. The full ranking holds about 33,000 sequences; the median of “E-score (dimensionless, -0.5 to 0.5)” is about -0.049, and the highest 2% start at about 0.37. This is one part of the list.

tested on: T1, PmTbr T-box DNA-binding domain (GST fusion); assay: PBM E-score of 8-mer (E-score (dimensionless, -0.5 to 0.5)); Tbr is Tbrain of the sea star Patiria miniata (Pm) or the sea urchin Strongylocentrotus purpuratus (Sp); higher = stronger binding preference; most listed sequences are background and not binding sites; details: the construct has about 5 more residues each side
T1 sequence: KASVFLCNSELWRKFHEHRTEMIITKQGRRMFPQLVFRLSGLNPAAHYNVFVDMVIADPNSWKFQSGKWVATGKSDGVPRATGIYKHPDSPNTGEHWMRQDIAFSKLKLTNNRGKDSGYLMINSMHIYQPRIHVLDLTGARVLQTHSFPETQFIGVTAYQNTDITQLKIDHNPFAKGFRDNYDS
In short: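 Primer extension turned Universal Agilent oligonucleotide arrays double-stranded. They were incubated with 200 nM protein in PBS (pH 7.5); the protein was a GST-fused Tbr T-box DNA-binding domain expressed in BL21 E. coli at 20 °C and purified on glutathione. Every ungapped 8-mer was scored from the scanned, quantified probe intensities, and the Universal PBM Analysis Suite gave each an enrichment E-score averaged over duplicate arrays.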

Row | Sequence | PBM E-score of 8-mer
1 | CATCCATA | -0.26 ± 0.036
2 | CCTCCGCA | -0.0772 ± 0.12
3 | ACAATCGG | -0.0233 ± 0.062
4 | GCATTGAC | -0.124 ± 0.12
5 | CACAGGAA | -0.12 ± 0.015
6 | GCTAGCAC | 0.33 ± 0.0063
7 | TACCCATA | -0.104 ± 0.024
8 | AGATAGCC | -0.294 ± 0.041
9 | CCCGACGC | 0.102 ± 0.038
10 | CGCAGACC | -0.244 ± 0.063
11 | ATCTTCTG | -0.262 ± 0.01
12 | GGGATCAC | -0.124 ± 0.12
13 | CGGCCCTC | -0.183 ± 0.034
14 | AGTAACGG | -0.0166 ± 0.062
15 | CCGATAGC | 0.134 ± 0.037
16 | AGGAGTAT | -0.229 ± 0.016
17 | AACATGGA | -0.0742 ± 0.0047
18 | GGGATAGA | -0.0727 ± 0.018
19 | GATGTGCC | 0.148 ± 0.049
20 | GACCTGGC | -0.00364 ± 0.055
21 | AAGAAGAC | -0.246 ± 0.033
22 | CACAGTGG | 0.0493 ± 0.042
23 | GGACCGAC | -0.276 ± 0.0089
24 | CAGAATTC | -0.101 ± 0.079
25 | AACCCACA | 0.275 ± 0.048

Row | Sequence | PBM E-score of 8-mer
26 | CCCGATCA | -0.0612 ± 0.05
27 | GGCGTACA | -0.238 ± 0.0082
28 | ATATTCAC | 0.276 ± 0.07
29 | ACGACTTC | 0.0199 ± 0.053
30 | CCACGTCC | -0.0664 ± 0.053
31 | CACTTATC | 0.3 ± 0.034
32 | CTGGGCAA | -0.0976 ± 0.033
33 | ACTGGTAG | -0.0136 ± 0.011
34 | CAATTTAA | -0.0717 ± 0.078
35 | CAAGGGGC | -0.095 ± 0.021
36 | ACATCCGA | 0.0423 ± 0.028
37 | TAATGACA | 0.155 ± 0.07
38 | ACACAATG | 0.122 ± 0.021
39 | AAGACGCG | -0.0527 ± 0.027
40 | CGGTTCTC | 0.0577 ± 0.042
41 | CCGCTACG | -0.186 ± 0.064
42 | GAGGCACC | -0.072 ± 0.042
43 | ACCTGTTG | 0.3234 ± 0.00092
44 | CGATCGCG | 0.218 ± 0.026
45 | CGTGTTGC | 0.259 ± 0.0072
46 | AGTAACTG | 0.0359 ± 0.082
47 | AGCAAACT | 0.058 ± 0.032
48 | ACGGACAA | -0.0315 ± 0.015
49 | AAAATAGC | 0.153 ± 0.055
50 | ACTTTTTC | 0.124 ± 0.02

Row | Sequence | PBM E-score of 8-mer
51 | CAGCCTCA | -0.176 ± 0.028
52 | AAGAAATC | -0.185 ± 0.033
53 | CGCAGGTC | 0.0637 ± 0.057
54 | CCCCGTGA | -0.0467 ± 0.12
55 | GAGAATAA | 0.0269 ± 0.072
56 | AAACTAGC | 0.0128 ± 0.01
57 | GGATAAAC | -0.0868 ± 0.041
58 | GGTTACAA | -0.0566 ± 0.048
59 | AATACATA | 0.0821 ± 0.051
60 | AACGGGCG | 0.194 ± 0.036
61 | AACCTGCA | -0.102 ± 0.047
62 | AAAGCACA | 0.117 ± 0.054
63 | TATAAATA | -0.203 ± 0.015
64 | GGGTTTAC | -0.0575 ± 0.0035
65 | ATACCTAA | 0.0416 ± 0.058
66 | ATACGCCG | -0.151 ± 0.092
67 | AGCGAGTA | 0.103 ± 0.1
68 | AGTGCCAA | 0.3809 ± 0.0024
69 | GGATGGCC | -0.234 ± 0.018
70 | CTGAGACC | -0.24 ± 0.018
71 | GATCTCAA | -0.0224 ± 0.034
72 | ACTGGCAC | 0.264 ± 0.015
73 | AGAGCGAA | -0.0994 ± 0.014
74 | GCTCATGA | -0.12 ± 0.095
75 | GAGGGGTA | -0.246 ± 0.014

Row | Sequence | PBM E-score of 8-mer
76 | CATTAGAC | -0.177 ± 0.0077
77 | CGGCTACC | -0.107 ± 0.079
78 | AATGCGTC | 0.00296 ± 0.0052
79 | GTTCCTTA | -0.0555 ± 0.021
80 | ACGGGAAG | -0.0973 ± 0.061
81 | CAGAGTAA | 0.0248 ± 0.048
82 | CAGAGATA | -0.139 ± 0.02
83 | CTGGCTCC | -0.179 ± 0.065
84 | AGAGCCTC | -0.118 ± 0.041
85 | TCATCGCA | 0.224 ± 0.037
86 | ACTAGCCC | -0.188 ± 0.047
87 | AGAGGCAG | -0.159 ± 0.034
88 | AATAGTGA | 0.0587 ± 0.035
89 | AGGGAGTG | 0.238 ± 0.064
90 | AGCACGTG | 0.252 ± 0.026
91 | AACTGTAT | -0.115 ± 0.054
92 | CCTCATAG | -0.0665 ± 0.046
93 | GCTAGTAC | 0.107 ± 0.018
94 | CCAGGAAG | -0.108 ± 0.063
95 | TATCCTCA | 0.113 ± 0.032
96 | AGGCAACT | -0.153 ± 0.053
97 | AACGAAAT | 0.000945 ± 0.056
98 | AAGGGACC | -0.119 ± 0.0064
99 | GCGGGTAC | 0.0587 ± 0.056
100 | ACGGTAAG | -0.229 ± 0.017

Row | Sequence | PBM E-score of 8-mer
101 | ACAACACA | 0.347 ± 0.033
102 | CAACCGAA | -0.0273 ± 0.062
103 | AGAATGGC | -0.0505 ± 0.041
104 | ACAGCCAT | -0.0893 ± 0.077
105 | AATGGGGG | -0.379 ± 0.084
106 | AGTTCGAT | 0.0508 ± 0.0041
107 | AAGAAAGC | -0.00917 ± 0.018
108 | AACTCCGT | -0.0678 ± 0.0093
109 | ACAGAGAT | -0.1 ± 0.034
110 | CACGCACG | 0.166 ± 0.02
111 | ATTTTGCC | -0.236 ± 0.011
112 | ATTGGGTG | 0.219 ± 0.031
113 | ACCGTGGG | -0.127 ± 0.08
114 | TGCAGTAA | 0.0562 ± 0.00087
115 | CATCGTGG | 0.00413 ± 0.062
116 | GTCCGGAA | -0.254 ± 0.047
117 | ACTAGGCA | -0.199 ± 0.013
118 | AGGTCGCA | 0.286 ± 0.027
119 | AGGAGGGA | -0.145 ± 0.042
120 | GTTTCAAA | -0.36 ± 0.028
121 | AGATAAAT | -0.223 ± 0.057
122 | GACACCAC | 0.393 ± 0.016
123 | ACATACTC | -0.13 ± 0.018
124 | AATGTAGC | -0.0814 ± 0.05
125 | ACGGCAGC | -0.0266 ± 0.025

Row | Sequence | PBM E-score of 8-mer
126 | CGTAGTGA | -0.00456 ± 0.0019
127 | GTCACTCA | 0.227 ± 0.0053
128 | CAGGCGGA | -0.127 ± 0.072
129 | TAAAGAGA | -0.117 ± 0.078
130 | ACTGCGTG | -0.0457 ± 0.079
131 | GCAATCTA | 0.037 ± 0.016
132 | CAGCGATC | 0.0234 ± 0.031
133 | TGATAACA | 0.306 ± 0.012
134 | GCAGCTCA | 0.0484 ± 0.052
135 | CCACCTGA | 0.172 ± 0.044
136 | GGAACGCC | 0.148 ± 0.044
137 | ACGGCCTG | -0.0299 ± 0.035
138 | AACACCGC | 0.287 ± 0.0081
139 | AAAATCAA | -0.0399 ± 0.094
140 | AGTTCGGA | -0.216 ± 0.0069
141 | ATCACTAC | 0.0608 ± 0.021
142 | TGTCTTAA | 0.00168 ± 0.0044
143 | ATTTGCAA | -0.0355 ± 0.0088
144 | CTGGTCTC | -0.141 ± 0.056
145 | GAACTGAC | -0.128 ± 0.048
146 | ACCCATTG | -0.141 ± 0.018
147 | ACGTTGCC | 0.152 ± 0.021
148 | GCAACCAC | -0.0105 ± 0.021
149 | AGTTGGAG | -0.108 ± 0.016
150 | CCACTAAA | -0.0993 ± 0.0027

Row | Sequence | PBM E-score of 8-mer
151 | ACAACGCA | 0.105 ± 0.03
152 | AATACCCC | -0.321 ± 0.036
153 | CGCCTCAG | 0.344 ± 0.036
154 | ATTTGATC | -0.303 ± 0.072
155 | CCTAGAAC | -0.165 ± 0.042
156 | CCTATCTA | -0.209 ± 0.066
157 | ATGGAATA | -0.0607 ± 0.02
158 | AAAACCAG | 0.076 ± 0.0043
159 | ATCCGTCG | 0.0371 ± 0.005
160 | TAATCCCA | -0.287 ± 0.0032
161 | GATTGGAC | -0.0692 ± 0.062
162 | ACGGTGAT | 0.202 ± 0.0041
163 | AGCAACAA | 0.0934 ± 0.021
164 | CAACGCGC | 0.147 ± 0.046
165 | AATATCTC | 0.0397 ± 0.066
166 | ACTCATTA | -0.0257 ± 0.047
167 | ACAGAGCA | -0.253 ± 0.03
168 | GTCCTCGA | -0.186 ± 0.012
169 | ATATTGCG | 0.103 ± 0.039
170 | ATTGGAAA | -0.27 ± 0.074
171 | AGTAAAAT | -0.191 ± 0.049
172 | TATCAATA | -0.108 ± 0.025
